This is an account of results in the BET-seq Pho4 binding data (Le et al. 2018).

Some of the results follow. The energies were worked out here from pooled read counts, against the library average; single values are noisy.

The target in the assay is T1, Pho4 (S. cerevisiae) (UniProt P07270).
T1 sequence: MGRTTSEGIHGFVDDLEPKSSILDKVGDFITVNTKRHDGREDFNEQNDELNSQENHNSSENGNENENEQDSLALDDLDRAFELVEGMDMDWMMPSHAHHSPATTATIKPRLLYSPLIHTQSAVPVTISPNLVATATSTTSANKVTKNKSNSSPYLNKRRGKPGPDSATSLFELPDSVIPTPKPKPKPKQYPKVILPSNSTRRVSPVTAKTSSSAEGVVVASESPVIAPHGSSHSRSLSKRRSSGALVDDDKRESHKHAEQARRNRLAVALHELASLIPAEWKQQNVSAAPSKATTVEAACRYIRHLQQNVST
Kind of assay: relative binding free energy (BET-seq); higher = weaker binding. Particulars: reference: library average.
In the case of TTATACACGTGTGGCT, the “relative binding free energy” value stood at 0.11 kcal/mol. Under AGGTACACGTGGGACT stands -0.01 kcal/mol. Under TCTGGCACGTGATATA stands -0.02 kcal/mol; under AGAGACACGTGTAGTT, 0.15 kcal/mol; under ATTTTCACGTGCTTTC, 0.24 kcal/mol. Turning to CAAGGCACGTGGGGAT, the “relative binding free energy” value was -0.1 kcal/mol. Regarding TAGTCCACGTGGTGTT, the “relative binding free energy” value was -0.14 kcal/mol. For the sequence CTTGTCACGTGGGAGG, the “relative binding free energy” value is -0.03 kcal/mol. Under GGTTGCACGTGTAAAA stands 0.04 kcal/mol; under GGTGTCACGTGATTAT, 0.21 kcal/mol. For the sequence ATGTGCACGTGTCTGT, the “relative binding free energy” value was -0.09 kcal/mol. As to ATTGTCACGTGTTGCA, the “relative binding free energy” value worked out at 0 kcal/mol. On to ATTTGCACGTGAAGCG, for which the “relative binding free energy” value was 0.23 kcal/mol. Under TAGGACACGTGGTCGA stands -0.09 kcal/mol; under ACGAGCACGTGTGGTT, -0.11 kcal/mol. Take GTCATCACGTGCGTTG: the “relative binding free energy” value worked out at 0.17 kcal/mol. Under AGATGCACGTGTATTA stands -0.01 kcal/mol. The value for GTTAACACGTGATGAA was 0.24 kcal/mol; that for TACTTCACGTGTGGGA was 0.18 kcal/mol; that for GTTTACACGTGAGTTA was 0.26 kcal/mol. On to AGTCGCACGTGTTCGG, for which the “relative binding free energy” value is -0.04 kcal/mol. For CGGTTCACGTGCTGGA, the “relative binding free energy” value is 0.17 kcal/mol.

Turning to CGCGCCACGTGGGTGT, the “relative binding free energy” value is -0.26 kcal/mol. The value for GACGGCACGTGTATTT was 0.16 kcal/mol; that for GTTGCCACGTGTTGCG was -0.08 kcal/mol; that for ATTTACACGTGGAAGT was 0.25 kcal/mol.

Turning to AAATGCACGTGTGTAA, the “relative binding free energy” value is 0.14 kcal/mol.

With AGGTACACGTGTATGT, the “relative binding free energy” value is 0.02 kcal/mol. With TTGAACACGTGGATTA, the “relative binding free energy” value was 0.08 kcal/mol. Under CATTGCACGTGTGAGG stands 0.01 kcal/mol. Consider TGGGTCACGTGTGATC, for which the “relative binding free energy” value was determined as 0.09 kcal/mol. Consider TGGGTCACGTGCGGAC, for which the “relative binding free energy” value came to 0.24 kcal/mol. Under TGGGTCACGTGGTTCT stands 0.01 kcal/mol; under CGTGCCACGTGGTGTG, -0.31 kcal/mol. On to TGGTGCACGTGTGAAC, for which the “relative binding free energy” value was 0.05 kcal/mol. Turning to GGTTTCACGTGTGTCA, the “relative binding free energy” value came out at 0.32 kcal/mol. For the sequence GGGTGCACGTGGAAAT, the “relative binding free energy” value came to 0.13 kcal/mol. The value for GGGTTCACGTGGTAGC was 0.18 kcal/mol; that for AAAGGCACGTGATTAT was 0.07 kcal/mol.

As for GTGGCCACGTGCTGGT, the “relative binding free energy” value is -0.17 kcal/mol. Take GTTTGCACGTGGGCTG: the “relative binding free energy” value is -0.04 kcal/mol.

As for AAAGGCACGTGGGACG, the “relative binding free energy” value is -0.17 kcal/mol. The value for GTTGGCACGTGTATGG was 0.06 kcal/mol; that for TTAGACACGTGGAGGA was -0.14 kcal/mol; that for AAGTGCACGTGCGATG was 0.03 kcal/mol. The value for CGCTTCACGTGGTGGG was 0.17 kcal/mol; that for GGTTTCACGTGTGAGT was 0.26 kcal/mol; that for GGGGCCACGTGTCATG was -0.03 kcal/mol. Consider ATGATCACGTGGGAGG, for which the “relative binding free energy” value is -0.04 kcal/mol. The value for GTAAGCACGTGTTAGT was -0.02 kcal/mol.

GATCTCACGTGTGAGG: the “relative binding free energy” value was found to be 0.28 kcal/mol.

Consider ATGAGCACGTGGGCTG, for which the “relative binding free energy” value was -0.25 kcal/mol. Take AGTAACACGTGGGCAG: the “relative binding free energy” value was -0.11 kcal/mol. Under AATTTCACGTGAGTTA stands 0.32 kcal/mol; under TTTCTCACGTGAATTG, 0.52 kcal/mol; under GTCTACACGTGGGAGT, 0.12 kcal/mol. With GTGCACACGTGGGCTT, the “relative binding free energy” value was -0.08 kcal/mol. With TAGGTCACGTGGACTG, the “relative binding free energy” value was determined as 0.12 kcal/mol. The value for TATTTCACGTGACTGC was 0.49 kcal/mol; that for ACAGTCACGTGTGGGG was 0.09 kcal/mol; that for TTTGGCACGTGTTTCA was 0.03 kcal/mol. As to GTTTACACGTGGTGCT, the “relative binding free energy” value is 0.08 kcal/mol. The value for TGAGCCACGTGGGTTA was -0.26 kcal/mol. Under CTATTCACGTGTCGTT stands 0.27 kcal/mol; under GCGGTCACGTGTGGCA, 0.27 kcal/mol; under GGATTCACGTGCGGGA, 0.27 kcal/mol. GGTGGCACGTGCTATA: the “relative binding free energy” value was -0.18 kcal/mol. As for TATTTCACGTGACTGG, the “relative binding free energy” value was 0.37 kcal/mol. The value for TTGGTCACGTGGAATG was 0.23 kcal/mol; that for AGTTTCACGTGTTATA was 0.21 kcal/mol; that for ATTGGCACGTGTTAAT was -0.02 kcal/mol. On to AATAGCACGTGGTGCT, for which the “relative binding free energy” value stood at 0.04 kcal/mol.

For GACTTCACGTGGATGT, the “relative binding free energy” value is 0.4 kcal/mol.
